The other results are listed elsewhere or left out.

Common to all, as to test: glycan array binding signal (z-score within array); higher = stronger binding
Holding throughout (details): glycan notation: IUPAC condensed, linker removed

Test [1] has as its target Gal(b1-3)[Neu5Ac(a2-6)]GlcNAc(b1-6)Gal(b1-4)Glc. The method, boiled down:
(§1)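 Negative Z-scores can be read as non-binding. The Z-score is calculated within each array and then averaged across arrays of one protein sequence at different concentrations or buffers and across linkers. Arrays, 3228 in all, were curated from the Consortium for Functional Glycomics database and kept only where the protein sequence was available.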

The target of test [2] is Gal(b1-3)[Neu5Ac(b2-6)]GalNAc. A digest of the protocol:
as §1

Another test concerns the target Gal(b1-4)Gal. The method, boiled down: as §1
Test [3] has as its target Gal(b1-4)GalNAc(a1-3)[Fuc(a1-2)]Gal(b1-4)GlcNAc. A digest of the protocol:
as §1

Test [4] deals with Gal(b1-4)GalNAc(b1-3)[Fuc(a1-2)]Gal(b1-4)GlcNAc. A digest of the protocol:
as §1

Another test concerns the target Gal(b1-4)Glc. The method, boiled down:
as §1

For the next test, the target named is Gal(b1-4)Glc6S. A digest of the protocol: as §1
A further test addresses Gal(b1-4)GlcNAc. The method, boiled down: as §1
In test [5] the target is Gal(b1-4)GlcNAc(a1-6)Gal(b1-4)GlcNAc. A digest of the protocol:
as §1

The next test addresses Gal(b1-4)GlcNAc(b1-2)Man. A digest of the protocol:
as §1

Test [6] addresses Gal(b1-4)GlcNAc(b1-2)Man(a1-3)Man(b1-4)GlcNAc(b1-4)GlcNAc. The method, boiled down:
as §1

Test [7] has as its target Gal(b1-4)GlcNAc(b1-2)Man(a1-3)[Gal(b1-4)GlcNAc(b1-2)Man(a1-6)]Man(b1-4)GlcNAc(b1-4)GlcNAc. The method, boiled down: as §1
The target in test [8] is Gal(b1-4)GlcNAc(b1-2)Man(a1-3)[Gal(b1-4)GlcNAc(b1-2)Man(a1-6)]Man(b1-4)GlcNAc(b1-4)[Fuc(a1-6)]GlcNAc. The method, boiled down: as §1
Test [9] deals with Gal(b1-4)GlcNAc(b1-2)Man(a1-3)[Gal(b1-4)GlcNAc(b1-2)Man(a1-6)][Gal(b1-4)GlcNAc(b1-4)]Man(b1-4)GlcNAc(b1-4)[Fuc(a1-6)]GlcNAc. The method, boiled down: as §1
Test [10] deals with Gal(b1-4)GlcNAc(b1-2)Man(a1-3)[Gal(b1-4)GlcNAc(b1-2)Man(a1-6)][GlcNAc(b1-4)]Man(b1-4)GlcNAc(b1-4)[Fuc(a1-6)]GlcNAc. A digest of the protocol: as §1
Test [11] has as its target Gal(b1-4)GlcNAc(b1-2)Man(a1-3)[GlcNAc(b1-2)Man(a1-6)]Man(b1-4)GlcNAc(b1-4)GlcNAc. The method, boiled down: as §1
For test [12], the target named is Gal(b1-4)GlcNAc(b1-2)Man(a1-3)[GlcNAc(b1-4)][Gal(b1-4)GlcNAc(b1-2)Man(a1-6)]Man(b1-4)GlcNAc(b1-4)GlcNAc. The method, boiled down:
as §1

Test [13] has as its target Gal(b1-4)GlcNAc(b1-2)Man(a1-3)[Man(a1-6)]Man(b1-4)GlcNAc(b1-4)GlcNAc. A digest of the protocol: as §1
Test [14] has as its target Gal(b1-4)GlcNAc(b1-2)Man(a1-6)Man(b1-4)GlcNAc(b1-4)GlcNAc. A digest of the protocol: as §1
In test [15] the target is Gal(b1-4)GlcNAc(b1-2)Man(a1-6)[GlcNAc(b1-2)Man(a1-3)]Man(b1-4)GlcNAc(b1-4)GlcNAc. A digest of the protocol:
as §1

Test [16] concerns the target Gal(b1-4)GlcNAc(b1-2)Man(a1-6)[Man(a1-3)]Man(b1-4)GlcNAc(b1-4)GlcNAc. A digest of the protocol:
as §1

Test [17] addresses Gal(b1-4)GlcNAc(b1-2)[Gal(b1-4)GlcNAc(b1-4)]Man(a1-3)[Gal(b1-4)GlcNAc(b1-2)Man(a1-6)]Man(b1-4)GlcNAc(b1-4)GlcNAc. The method, boiled down:
as §1

B1: NPA (Narcissus pseudonarcissus), C0HM45 (protein)
chain: DNILYSGETLSPGEFLNNGRYVFIMQEDCNLVLYDVDKPIWATNTGGLDRRCHLSMQSDGNLVVYSPRNNPIWASNTGGENGNYVCVLQKDRNVVIYGTARWATGTNIH
As to B1, the “glycan array binding signal (z-score)” value was -0.206 in [1]; -0.157 in [2]; -0.147 in the test with Gal(b1-4)Gal; -0.156 in [3]; -0.154 in test [4]; -0.145 with Gal(b1-4)Glc. The “glycan array binding signal (z-score)” value in the test with Gal(b1-4)Glc6S is -0.151; with Gal(b1-4)GlcNAc, -0.148; in [5], -0.143; in the test with Gal(b1-4)GlcNAc(b1-2)Man, -0.142; in test [6], 0.122; in test [7], 0.602. Further, the “glycan array binding signal (z-score)” value in test [8] was -0.122; in test [9] it was -0.143; in test [10] it was -0.153; in [11], 0.095; in [12] it was -0.138; in test [13], 1.71. For the same molecule, the “glycan array binding signal (z-score)” value in test [14] was -0.144; in test [15], -0.028; in test [16] it was 3.12; in [17], -0.119.

Source of the values: the supplement of paper PMC8728848.
